# Experimental data as given in the supplement of paper PMC3334620.
# Whole data set: some 33,000 sequences, median “E-score (-0.5 to 0.5)” near -0.043, cut for the highest 2% near 0.37. The list shows a part of the results.
# Target: T1, Upc2 (UniProt Q12151)
# T1 sequence: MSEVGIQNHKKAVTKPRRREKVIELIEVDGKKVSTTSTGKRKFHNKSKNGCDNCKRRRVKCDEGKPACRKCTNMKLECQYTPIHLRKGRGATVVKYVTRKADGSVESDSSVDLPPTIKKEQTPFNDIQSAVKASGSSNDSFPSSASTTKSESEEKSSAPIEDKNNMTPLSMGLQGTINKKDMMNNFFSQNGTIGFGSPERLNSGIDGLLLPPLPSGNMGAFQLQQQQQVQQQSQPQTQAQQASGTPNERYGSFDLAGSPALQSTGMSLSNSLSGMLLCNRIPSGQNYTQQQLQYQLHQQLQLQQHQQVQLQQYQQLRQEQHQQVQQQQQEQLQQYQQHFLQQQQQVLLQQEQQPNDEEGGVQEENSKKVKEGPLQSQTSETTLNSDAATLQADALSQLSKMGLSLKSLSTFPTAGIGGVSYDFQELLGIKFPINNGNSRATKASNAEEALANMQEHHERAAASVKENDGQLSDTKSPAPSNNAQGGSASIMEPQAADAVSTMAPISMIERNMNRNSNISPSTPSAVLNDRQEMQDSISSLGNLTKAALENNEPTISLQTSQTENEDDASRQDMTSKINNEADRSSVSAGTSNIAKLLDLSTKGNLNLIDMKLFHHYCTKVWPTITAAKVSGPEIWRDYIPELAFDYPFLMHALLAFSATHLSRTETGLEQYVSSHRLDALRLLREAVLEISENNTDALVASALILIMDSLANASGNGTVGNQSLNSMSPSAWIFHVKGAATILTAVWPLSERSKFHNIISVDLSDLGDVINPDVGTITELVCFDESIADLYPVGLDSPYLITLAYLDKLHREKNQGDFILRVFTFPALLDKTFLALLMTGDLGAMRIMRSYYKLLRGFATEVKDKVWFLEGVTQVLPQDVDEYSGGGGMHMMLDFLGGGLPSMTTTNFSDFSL
# Assay: PBM E-score (8-mer binding enrichment) (E-score (-0.5 to 0.5)); higher = stronger / more preferred TF binding; most listed sequences are background and not binding sites
# Conditions: protein concentration: 200 nM; construct: GST-full length
# Outline: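 Using PURExpress in vitro transcription/translation, GST-tagged yeast transcription factors were made in full-length or DNA-binding-domain form. These were applied at about 100-200 nM to double-stranded universal all-10-mer Agilent arrays, and bound protein was detected with fluorescent anti-GST. Scans were normalised with masliner before the Universal PBM Analysis Suite assigned E-scores to ungapped eight-base words pooled with their reverse complements.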
row,Sequence,PBM E-score
1,AGCGACCG,0.193
2,ACCTCCGC,-0.25
3,CAGACCAA,-0.11
4,CAAGGTTA,0.0313
5,AATAATTG,-0.0972
6,CAAGCACA,-0.274
7,CTTGTTCA,-0.159
8,ATAACGAA,0.197
9,CCGTACGG,0.374
10,AAAGTATA,0.0969
11,ACAGTGGG,-0.0429
12,GCGGTACC,0.0215
13,GTCGTGAA,0.0602
14,TGCCAGCA,-0.235
15,TCACAGCA,-0.0683
16,GAATTAGC,-0.0225
17,GAGATCAC,-0.0901
18,AGAAGTAC,-0.0345
19,AAAGTAAT,-0.0147
20,TGCGCAAA,0.0117
21,AACACACA,-0.0132
22,CATTTCTA,0.0515
23,AGAGTTGA,0.14
24,AGATTTCG,0.293
25,TGTACCAA,0.03

row,Sequence,PBM E-score
1,ACCGGCCG,0.00105
2,GAACCCAC,0.0834
3,GACGGGAA,0.0979
4,GAAGTCCC,-0.176
5,ATGATACG,0.354
6,CTCTGGCC,-0.103
7,GTGACCAA,-0.0895
8,CAAGCAAC,-0.0707
9,ACCGAAGA,0.0781
10,CTCGGCAA,0.0527
11,AATTCTAG,0.0622
12,ATTGGCTA,0.044
13,GTAACGTA,0.283
14,CTTTATCC,0.0916
15,AGTTTAGA,-0.00847
16,AAACACGT,-0.0244
17,CCTATAAG,0.133
18,AGGTGGAA,-0.0211
19,ACAAGTCG,0.0441
20,ACAGATCC,0.0533
21,AATCAATT,-0.1
22,AGGATACC,-0.137
23,AGGCACTA,-0.0737
24,AGCTAGCG,0.0852
25,ATACGTCC,0.238

row,Sequence,PBM E-score
1,CCCCCTGC,-0.125
2,AGTCCTGC,-0.166
3,CTGAGCAC,-0.174
4,GCAGACGC,-0.0316
5,AAGGGGTC,-0.176
6,GAGGTACA,-0.065
7,GCCTCCCC,-0.149
8,CTCGTCGA,-0.029
9,AACTGAAT,-0.0422
10,CTATTCGC,0.06
11,GTAATCAA,0.00463
12,AACTATCT,0.155
13,AGGGTGAC,-0.128
14,GACCTTAA,-0.0857
15,CTATATCC,-0.175
16,ATATCCTC,-0.156
17,CGACATTC,0.23
18,AGAGTACT,-0.111
19,CAACTTGG,0.147
20,AGGGTGAG,-0.254
21,CCATGACA,-0.184
22,CTGCTGGA,-0.353
23,ATAAACTC,0.0451
24,ACCTATTA,-0.0505
25,ACAAGCCA,-0.042

row,Sequence,PBM E-score
1,CAGTATCG,0.028
2,ATTCATAA,-0.0501
3,CCGCACAG,0.00333
4,CGGCAAGC,0.0794
5,CCCTGGCG,-0.196
6,CTCGTGCC,0.0725
7,AGGCAATG,-0.0822
8,AGGCAGCA,-0.0524
9,AAGGTGAT,-0.095
10,CGTGCCAG,-0.166
11,AATATAAT,-0.0761
12,CCGACGAC,0.0759
13,ACCACAAA,-0.00424
14,CCTTAGAC,-0.117
15,CTCCATTA,-0.232
16,CCTACGCA,-0.196
17,GCCATCAA,-0.107
18,CGTCTTCC,-0.142
19,TAACTTGA,-0.0099
20,AGCCTACT,-0.16
21,ATCGTCCC,-0.0699
22,AACCTCGC,0.0636
23,CCCTCCAG,-0.196
24,GACCGAGA,0.132
25,GTTGCCGA,0.16

row,Sequence,PBM E-score
1,AAGCGTCG,0.0443
2,CGATGCTA,0.0925
3,CATGACAC,-0.12
4,CCAACATA,0.0425
5,CAAGTCTG,-0.272
6,CCCTAAGC,-0.175
7,CGTGCGCA,-0.0833
8,CAGGGTGA,-0.223
9,AGTCGCTC,0.0535
10,CAGCATTC,-0.11
11,ATCTGAAC,-0.0198
12,ACTTCTGG,-0.261
13,ACTTTGTG,0.0538
14,GTTACATA,0.0177
15,ACCAAATA,0.0597
16,CGCCACGA,0.0284
17,GCCTGCAC,-0.357
18,ACGCGGGA,0.108
19,CGTCTACA,0.0307
20,AACGGATG,0.224
21,GTTCGGTA,0.173
22,TGGCCGAA,-0.177
23,CTCTCATA,-0.0662
24,ACACCGTA,0.321
25,ACTTCGCA,0.0859

row,Sequence,PBM E-score
1,CCTCATCC,-0.322
2,CAGGTAGC,-0.228
3,TAATTGTA,0.0856
4,AGAACCTC,-0.1
5,CTGGGGAA,-0.182
6,ATCATCAC,-0.158
7,CCGTAGCG,0.28
8,TCTCAGAA,-0.17
9,CAATGCGC,0.121
10,TGGGAAAA,-0.0994
11,AAGCATTA,-0.0439
12,AATATTGA,0.0921
13,TCAAGTGA,-0.0301
14,CTACGGGC,-0.0221
15,AGATGACT,-0.19
16,AATATTCG,0.221
17,AGGCCTCG,0.219
18,GCAAACGC,0.25
19,GACGTGCA,0.118
20,CCCTACCC,-0.126
21,TAGTAGGA,-0.178
22,ACTAACAA,-0.0788
23,TCCAACAA,-0.0912
24,GACGTATC,0.156
25,CAATCTCG,0.0217

row,Sequence,PBM E-score
1,AAGGACGA,-0.0591
2,ATGCTCCA,-0.3
3,GAATTCGC,0.138
4,CGACGCCG,0.15
5,AAAAGAGG,0.076
6,GCTTTGAC,0.0261
7,ACCGGGCC,-0.232
8,ACCGACAC,0.184
9,AGGTATAC,0.339
10,CCGACCAC,0.0689
11,ACTAGGAC,-0.329
12,AACTCTGA,-0.0442
13,AGATCTTG,-0.165
14,AACCAGAA,0.0231
15,GAAAGTGA,-0.189
16,CTGAATTA,-0.193
17,CTGCTAGC,-0.416
18,AAATTACT,-0.0283
19,AGCGCAAT,-0.0325
20,CAATATAG,-0.179
21,CTGCACTA,-0.128
22,AGGCATAA,-0.104
